Measured values from the supplement of paper PMC3724861.
The other results are listed elsewhere or left out.

The sequences below were run on T1, Caupolican (Caup) homeodomain DNA-binding domain (assay: PBM E-score (8-mer, recovered from the published 9-mer minima) (E-score (dimensionless, -0.5 to 0.5)); Drosophila protein; higher = stronger relative binding preference, active = 0.31 or more).
T1 sequence: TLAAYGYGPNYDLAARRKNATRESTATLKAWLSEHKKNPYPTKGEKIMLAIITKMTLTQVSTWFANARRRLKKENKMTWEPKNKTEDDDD
Description: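 Protein binding microarray (PBM): in vitro transcribed/translated Caupolican (Caup) homeodomain DNA-binding domain (residues 214-303) applied at 100 nM to a universal 8-mer PBM array (Agilent AMADID 015681). The 8-mer enrichment score (E-score, range -0.5 to 0.5) was computed, and each 9-mer score is the minimum E-score of its two constituent 8-mers. The E-score is the same for a 9-mer and its reverse complement; 0.31 is the stated binding threshold.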

| Sequence | PBM E-score |
| --- | --- |
| AGCGTTGG | inactive: -0.059 |
| GCTGCCCA | inactive: -0.2 |
| ATCGCAAA | inactive: 0.0617 |
| GAGCACTA | inactive: -0.0464 |
| GAGGTATA | inactive: 0.0497 |
| TATATGAA | inactive: 0.186 |
| AGTATCTG | inactive: 0.00127 |
| ACTGTTGA | inactive: 0.0669 |
| ATAGTAGA | inactive: 0.109 |
| ACGATGCA | inactive: 0.0351 |
| AGATTCCA | inactive: 0.0537 |
| AAGACACG | ≥ 0.279 |
| AGTCCGTC | inactive: -0.0684 |
| AAGTTCCT | inactive: 0.0323 |
| AGTACTAA | inactive: 0.232 |
| CCGCACGG | inactive: -0.183 |
| CAGGTTGG | inactive: -0.0285 |
| ACAATGCA | inactive: 0.223 |
| CCGCCTTA | inactive: -0.1 |
| CGAAAGCC | inactive: -0.225 |
| CGTGGTTA | inactive: 0.112 |
| ATGTTCAA | active: 0.327 |
| CAGTCTGG | inactive: -0.174 |

| Sequence | PBM E-score |
| --- | --- |
| ATACGGGC | inactive: -0.0901 |
| TGAACAAA | inactive: 0.131 |
| AGGATATG | inactive: 0.116 |
| ATTCTATG | inactive: 0.155 |
| ATACCGAA | inactive: 0.0694 |
| ACGAGCCC | inactive: -0.153 |
| GCAGAATA | inactive: -0.0476 |
| CAACTCAC | inactive: 0.0566 |
| CCTTCAAG | inactive: -0.132 |
| AAGGGTAG | inactive: 0.0343 |
| GCTAGTTA | inactive: 0.115 |
| CATCCAAG | inactive: -0.0151 |
| CCCCTGAA | inactive: -0.0907 |
| ATGTATGG | inactive: 0.157 |
| ATCTATTA | inactive: 0.123 |
| AGACCCCC | inactive: -0.265 |
| CTTTGCCC | inactive: -0.142 |
| AGCGCGGA | inactive: -0.153 |
| ACTTGCAC | inactive: 0.148 |
| AGACCACC | inactive: -0.158 |
| AGGCGGCC | inactive: -0.228 |
| AGGTCGAC | inactive: 0.00284 |
| GAGCGCGC | inactive: -0.221 |

| Sequence | PBM E-score |
| --- | --- |
| GGACCCCC | inactive: -0.382 |
| AGGGAGTA | inactive: 0.0138 |
| CACGTTGC | inactive: 0.0387 |
| AAGTTCAT | inactive: 0.0213 |
| ACCGTAAA | ≥ 0.084 |
| ACTGGCAA | inactive: -0.0302 |
| GCGCAAAA | inactive: -0.0416 |
| AAATGTGG | inactive: 0.127 |
| AAACGTAT | inactive: 0.0892 |
| ATTTAGTA | inactive: 0.151 |
| GGATTAAA | inactive: 0.0416 |
| GCGGTTGA | inactive: -0.00524 |
| GGCCAGAC | inactive: -0.0954 |
| CCTTAGCA | inactive: -0.156 |
| AGAACTGA | ≥ 0.0475 |
| GCGATACC | inactive: -0.168 |
| ATCGACGC | inactive: 0.0422 |
| TCTGGCCA | inactive: -0.0807 |
| ATGGGGCG | inactive: -0.144 |
| AATTCCAC | inactive: 0.0287 |
| AATGATAA | inactive: 0.141 |
| ACACTCCT | inactive: 0.0379 |
| GGCCAACC | inactive: -0.179 |

| Sequence | PBM E-score |
| --- | --- |
| TATACGAA | inactive: 0.122 |
| CATCGGTC | inactive: -0.0743 |
| CCAGCGCG | inactive: -0.243 |
| GCAAGAAC | inactive: 0.00872 |
| TCAATTGA | inactive: -0.0145 |
| GCGATCCC | inactive: -0.142 |
| GCGCCCGC | inactive: -0.31 |
| CTCTCGCA | inactive: -0.108 |
| CCCAAGAC | inactive: -0.0814 |
| AACTGAAA | inactive: 0.069 |
| GCCCATCA | inactive: -0.1 |
| AGACCTTC | inactive: -0.138 |
| CCTGACTC | inactive: -0.114 |
| CAGAGATG | inactive: 0.129 |
| CATCTTCA | inactive: -0.0118 |
| ACGACGAT | inactive: 0.0412 |
| CGAGCACC | inactive: -0.16 |
| CAGGATTA | inactive: 0.0313 |
| GTATCAAC | inactive: 0.182 |
| ATCAAGGG | inactive: 0.0187 |
| CTTGGGCC | inactive: -0.297 |
| AAATATGG | inactive: 0.0773 |
| AGGGAACA | inactive: 0.162 |

| Sequence | PBM E-score |
| --- | --- |
| AACTAAAG | inactive: 0.173 |
| ACTGAGAT | inactive: 0.0602 |
| CTTGTCGC | inactive: 0.254 |
| TATCGAAA | inactive: 0.109 |
| TACGCATA | ≥ 0.154 |
| CCCACAGG | inactive: -0.142 |
| CCGCTTAG | inactive: -0.153 |
| AAACATTA | inactive: 0.233 |
| CCTACAGC | inactive: -0.074 |
| TCTAACCA | inactive: 0.133 |
| CGGCCGGA | inactive: -0.243 |
| GCTCGCAC | inactive: -0.225 |
| AAGTCAAA | inactive: 0.0275 |
| AAGCACGG | inactive: -0.0259 |
| TGAGGACA | inactive: 0.194 |
| AGACGACG | inactive: 0.0389 |
| ATCCAGTA | inactive: 0.0685 |
| GCATGCCC | inactive: -0.0714 |
| AAAAGGAG | inactive: -0.148 |
